The results in this text go back to patent US20030022345A1 (Human Genome Sciences, published 2003).

In this assay the target is T1, HA-La autoantigen (UniProt P05455 1-408).
T1 construct: not shown: HA tag
T1 sequence (looked up): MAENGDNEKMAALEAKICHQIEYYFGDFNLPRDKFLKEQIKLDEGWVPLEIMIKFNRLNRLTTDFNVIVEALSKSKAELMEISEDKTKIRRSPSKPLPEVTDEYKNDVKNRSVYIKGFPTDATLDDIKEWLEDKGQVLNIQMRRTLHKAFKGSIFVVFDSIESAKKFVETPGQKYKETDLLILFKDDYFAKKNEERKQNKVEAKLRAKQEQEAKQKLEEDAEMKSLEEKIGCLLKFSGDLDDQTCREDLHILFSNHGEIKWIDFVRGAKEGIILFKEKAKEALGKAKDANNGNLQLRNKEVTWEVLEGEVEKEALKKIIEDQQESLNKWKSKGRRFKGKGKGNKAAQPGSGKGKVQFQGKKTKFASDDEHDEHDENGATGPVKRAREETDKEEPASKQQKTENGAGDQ
In words: anti-HA co-immunoprecipitation from HeLa extracts, Western blot. The method, then:
After transfection, HeLa and COS-1 cells were cultured for 16 hours and 48 hours, respectively, and then labeled with [³⁵S] methionine(100 μCi/ml) for 1 hour in 3 cm dishes. Cells were lysed in 0.5 ml buffer A (150 mM NaCl, 1% NP-40, 0.1 % deoxycholate, 1 mM phenylmethylsulfonyl fluoride (PMSF), 1mM dithiothreitol (DTT), 50 mM Tris-HCl, pH 7.4). After centrifugation, the supernatant was mixed with 2 μg of anti- HA antibody (12CA5) for 6 hours in the cold room at 4° C. Protein G sepharose (30 ml of 50% slurry) was added and the mixture was incubated for 2 hours. After washing with buffer A (1 ml, three times), immunoprecipitates were collected by centrifugation and proteins were eluted with Laemmli buffer for SDS-10% polyacrylamide gel electrophoresis (SDS-PAGE). For co-immunoprecipitation experiments, transfected HeLa cells (6 cm dish) were lysed in 1 ml buffer B (100 mM KCl, 0.5 mM EDTA, 20 mM HEPES-KOH pH 7.6, 0.4% NP-40, 20 % glycerol, 1 mM DTT, 1 mM PMSF, 5 μg/ml pepstatin, 5 μg/ml leupeptin). After centrifugation, an aliquot (0.5 ml) was mixed with anti-HA antibody (2 μg).
The N-terminal third of eIF4G, to which eIF4E binds (Lamphear, B., supra; Mader, S., et al., supra), bears no similarity to p97. Therefore, no canonical eIF4E-binding site (Mader, S., et al., supra) is found in p97. […] Thus, it is predicted that p97 would bind to eIF4A and eIF3, but not to eIF4E. […]

B1: eIF4A (endogenous in HeLa cells) (enzyme)
chain: not shown
Turning to B1, the binding result is “no binding”.
